Assay results reported in PubChem BioAssay AID1466 (National Center for Advancing Translational Sciences (NCATS), 2008).
In all, about 200,000 compounds went through this assay and about 10 (0.005%) were called active. The inconclusive results got no clear call from the source; some entries with a clear call stand among them for comparison. Calls follow the shape of the dose curve; as a rule, active = well fitted inhibition curve with a large enough effect; inconclusive = small, poorly fitted or top-dose-only effect, or effect the other way, or another doubt; inactive = no such curve, though single readings can be large or run the other way. Potencies beside an inconclusive call are fits to weak or partial responses and may not hold up.

What follows are compounds tested against Lysosomal alpha-glucosidase (Homo sapiens) (UniProt P10253) (assay: qHTS Assay for Inhibitors of Human alpha-Glucosidase as a Potential Chaperone Treatment of Pompe Disease). Settings: purified human GAA, 4-MU-alpha-glucoside fluorescence; activity change, negative = inhibition: at 76.9 µM (top of the series) unless noted.
How it was run: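 Read-out is 4-methylumbelliferone fluorescence (Ex 365/Em 440 nm) after NaOH/glycine stop at pH 10. Enzyme 4 nM, substrate 400 uM, pH 5.0 citrate buffer, 20 min room temperature; AC50 from Hill-equation concentration-response.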
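For activity change, negative = inhibition in this document: plate controls were uninhibited enzyme wells for no effect and no-enzyme background for full effect.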
Potency is read from the fitted curve at half-maximal effect; tags tell the direction and shape of the fitted curve.

Potency, inactive:
COc1ccc2nc(-c3ccc(N)cc3)[nH]c2c1
CCC1=Nc2cc(C(=O)NCc3ccco3)ccc2Sc2ccccc21
CCN(C(=O)CN1CCN(c2ccccc2F)CC1)c1c(N)n(Cc2ccccc2)c(=O)[nH]c1=O
CCCCCC1(C)NC(=S)N(c2ccccc2)N1 (stereo not drawn)
CCOC(=O)c1c(C)oc2c1c1c(c3ccccc32)OCN(Cc2cccnc2)C1

Potency, inconclusive:
Cc1ccc(S(=O)(=O)N2CCN(C3CC(=O)N(Cc4ccccc4)C3=O)CC2)cc1C (stereo not drawn) 6.31 µM [inhibitor, partial curve]
C/[N+]([O-])=C\CC(=O)c1ccc(-c2ccccc2)cc1 50.1 µM [inhibitor, single point]
O=C(NCc1ccccc1)c1nc[nH]c1C(=O)NCc1ccccc1 31.6 µM [inhibitor, partial curve, poor fit]
COCCn1c(=NC(=O)c2ccc(S(=O)(=O)N3CCc4ccccc4C3)cc2)sc2cc(S(N)(=O)=O)ccc21 50.1 µM [activator, single point]
Cc1ccc(S(=O)(=O)N2CCN(CC(=O)N/N=C/c3cc([N+](=O)[O-])ccc3Cl)CC2)cc1 17.8 µM [inhibitor, partial curve]
CCCCN(CC)CCNC(=O)c1cn(-c2ccc(Cl)cc2)c(=O)c2ccccc12 17.8 µM [inhibitor, partial curve, poor fit]
CN1CCN(c2ccc(CNS(=O)(=O)Cc3ccc(Cl)cc3)cc2)CC1 0.562 µM [inhibitor, full curve, poor fit]
N#C/C(=C\c1ccc(OCc2ccccc2)cc1)C(N)=O 7.08 µM [activator, single point]
O=C1C2CC=CCC2C(=O)N1c1ccc(OCC(O)Cn2nnc3ccccc32)cc1 (stereo not drawn) 56.2 µM [inhibitor, single point]
O=C1c2ccccc2C(Nc2ccc(Cl)cn2)N1c1ccccn1 (stereo not drawn) 50.1 µM [inhibitor, partial curve, poor fit]
CCOc1ccc(Br)cc1S(=O)(=O)NCCN(C)C 1.58 µM [inhibitor, full curve]
Cc1c(C(=O)N2CCCC2)nnn1-c1nonc1N 0.891 µM [inhibitor, single point]
CCOC(=O)c1sc(=S)n(-c2ccccc2)c1N(C(C)=O)C(C)=O 5.01 µM [inhibitor, single point]
O=C(CCN1C(=O)/C(=C/c2cccc(Br)c2)SC1=S)NNC(=O)c1cccnc1 11.2 µM [inhibitor, partial curve]
COCCNC(=O)NC12CC3(C)CC(C)(CC(C)(C3)C1)C2 39.8 µM [inhibitor, single point]
Cc1ccc(/C=N/NC(=O)Cn2cnc3c2c(=O)n(C)c(=O)n3C)s1 6.31 µM [inhibitor, single point]
COc1ccc(NC(=O)/C(C#N)=C\C=C\c2ccco2)cc1 2.82 µM [inhibitor, partial curve, poor fit]
Cc1cc(N2CCOCC2)nc2ccccc12 10 µM [activator, partial curve, poor fit]
Cc1ccccc1N1C(=O)CN(Cc2sccc2C)C1=S 6.31 µM [inhibitor, partial curve]
Cc1ccc(/C=N/NC(=O)CSc2nc3ccccc3n2Cc2ccccc2)o1 56.2 µM [inhibitor, single point]
Cc1cc(C(=O)N/N=C/c2ccc(-c3cccc(Cl)c3)o2)n[nH]1 35.5 µM [activator, partial curve]
Cc1ccc(C(=O)NNC(=S)NC(=O)COc2ccccc2)cc1 50.1 µM [inhibitor, single point]
O=C(OCCCN1CCCC1)C1(c2ccccc2)CCCC1 50.1 µM [inhibitor, partial curve, poor fit]
CCN(C(=O)COC(=O)c1ccc2[nH]c3c(c2c1)CCCC3)C1CCS(=O)(=O)C1 (stereo not drawn) 50.1 µM [inhibitor, single point]
Cc1nn(-c2ccccc2)c2sc(C(=O)OCc3nnc(-c4ccccc4)o3)cc12 56.2 µM [inhibitor, single point]
COc1ccc2c(c1)CC(=O)NC=C2 1.26 µM [inhibitor, full curve]
Cc1cc2c3c(c1)C(C)(c1ccccc1)CC(C)(C)N3C(=O)C21C(C#N)=C(N)OC2=C1C(=O)CC(C)(C)C2 (stereo not drawn) 22.4 µM [inhibitor, single point]
CNS(=O)(=O)c1cccc(C(=O)OCC(=O)Nc2ccc(-c3nc4ccc(C)cc4s3)cc2)c1 25.1 µM [activator, partial curve, poor fit]
c1ccc2nc3[nH]cnc3nc2c1 50.1 µM [activator, single point]
O=C(O)c1cccc(N2CCCC2)c1 35.5 µM [activator, single point]
O=C(O)c1cccc(NC(=O)c2cccc(S(=O)(=O)N3CCCCC3)c2)c1 11.2 µM [inhibitor, single point]
CCCC(=O)N1CCc2cc(-c3nc(N)sc3C)ccc21 5.62 µM [inhibitor, single point]
COc1ccc(C(=O)c2sc(Nc3cccc(OC)c3)c(C(=O)Nc3cccc(C)c3C)c2N)cc1 11.2 µM [inhibitor, partial curve]
COc1cccc(CNCC(O)(c2ccc(Cl)cc2)c2ccc(Cl)cc2)c1 50.1 µM [inhibitor, single point]
Cc1ccc(-n2c(N)c(S(=O)(=O)c3ccccc3)c3nc4ccccc4nc32)cc1 25.1 µM [activator, partial curve]
CCCn1c(=O)c(-c2ccccc2)c(O)c2ccccc21 56.2 µM [activator, single point]
Cc1ccc(NC(=O)/C(=C\C=C\c2ccccc2)NC(=O)c2ccccc2)cc1 22.4 µM [inhibitor, single point]
CCOc1ccccc1N(CC(=O)Nc1cc(OC)ccc1OC)S(C)(=O)=O 50.1 µM [inhibitor, partial curve]
COC(=O)C1=C(C)NC(=O)/C1=C\c1cc(C)n(-c2ccc(F)cc2)c1C 44.7 µM [inhibitor, single point]
CCOC(=O)c1ccc(NC(=O)CSc2nc3c(c(=O)n2C)SC(C)C3)cc1 (stereo not drawn) 50.1 µM [inhibitor, single point]
COc1cc(C)c(S(=O)(=O)Nc2ccccc2F)cc1C 56.2 µM [inhibitor, single point]
Cc1nc(-c2ccccc2)sc1-c1nnc(C2CC2)o1 1.12 µM [inhibitor, full curve, poor fit]
CCOc1ccccc1-n1c(SCC(=O)NCc2ccco2)nnc1-c1ccncc1 39.8 µM [inhibitor, single point]
O=C(N=Nc1c(O)[nH]c2ccccc12)c1ccc(CN2CCOCC2)cc1 0.158 µM [inhibitor, full curve, poor fit]
O=C(CN1CCCC1)N/N=C/c1ccc(-c2cccc(Cl)c2)o1 28.2 µM [inhibitor, single point]
O=C(CCCC(=O)N(CC(=O)NC1CCCCC1)Cc1ccc2c(c1)OCO2)Nc1ccccn1 56.2 µM [inhibitor, single point]

Activity change, negative = inhibition, inconclusive:
CCN(CC)CC#CCC(O)(c1ccccc1)C1CCCCC1 (stereo not drawn) 15.5% [activator]
COc1ccc(CN2CCN(CCc3ccccc3)C(CCO)C2)c(O)c1 (stereo not drawn) 15.9% [activator]
Cc1cccc(OCC(=O)N2CCN(C(=O)c3ccc([N+](=O)[O-])cc3)CC2)c1 5.97% [activator]
CC(C)(C)n1nnnc1C(c1cc2cc3c(cc2[nH]c1=O)OCCO3)N1CCSCC1 (stereo not drawn) 15.4% [activator]
CCN(CC)S(=O)(=O)c1ccc2[nH]cc(C(=O)NCCN3CCCCCC3)c(=O)c2c1 -17% [inhibitor]
C/C(CC(=O)Nc1ccc(C)cc1C)=N\NC(=O)C(C)C 15% [activator]
Cc1oc(-c2cccc3ccccc23)nc1CN1CCN(c2ncnc3ccccc23)CC1 18.7% [activator]
COC(=O)c1cc2n(n1)CCN(Cc1cccc(OC)c1)C2=O -15.5% [inhibitor]
Cc1cc(C)n(-c2ccc(C(C)C)cc2)c(=O)c1C#N 14.6% [activator]
Cc1cnc(C(=O)OCC(=O)N2c3ccccc3NC(=O)C2(C)C)cn1 15.2% [activator]
Cc1ccc(OCc2cc(C(=O)Nc3ccccc3)oc2C)cc1 -17.2% [inhibitor]
CCOC(=O)Cn1c(=O)c2c(nc(Br)n2CC(=O)OCC)n(C)c1=O -18.5% [inhibitor]
